# Some of the results follow.
# B1: RSVL (Crotalus atrox), P21963 (protein)
# chain: NNCPLDWLPMNGLCYKIFNQLKTWEDAEMFCRKYKPGCHLASFHRYGESLEIAEYISDYHKGQENVWIGLRDKKKDFSWEWTDRSCTDYLTWDKNQPDHYQNKEFCVELVSLTGYRLWNDQVCESKDAFLCQCKF
# Tests used:
# Assay in all cases: glycan array binding signal (z-score within array); higher = stronger binding
# Details in all cases: glycan notation: IUPAC condensed, linker removed
# Gal(a1-2)Gal = target: Gal(a1-2)Gal
# Summary of the method: (§1)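 Glycan array data were curated from 3228 arrays in the Consortium for Functional Glycomics database and kept only where the protein sequence was available. Glycan names were converted to IUPAC-condensed notation, and columns mapping to the same glycan were averaged. The binding signal is a within-array Z-score, averaged across arrays of the same protein sequence at different concentrations or buffers and across linkers. Negative Z-scores can be read as non-binding.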
# Gal(a1-3)Gal = target: Gal(a1-3)Gal
# Summary of the method: as §1
# Gal(a1-3)Gal(b1-3)GlcNAc = target: Gal(a1-3)Gal(b1-3)GlcNAc
# Summary of the method: as §1
# Gal(a1-3)Gal(b1-4)Glc = target: Gal(a1-3)Gal(b1-4)Glc
# Summary of the method: as §1
# Gal(a1-3)Gal(b1-4)GlcNAc = target: Gal(a1-3)Gal(b1-4)GlcNAc
# Summary of the method: as §1
# [1] = target: Gal(a1-3)Gal(b1-4)[Fuc(a1-3)]GlcNAc
# Summary of the method: as §1
# Gal(a1-3)GalNAc = target: Gal(a1-3)GalNAc
# Summary of the method: as §1
# [2] = target: Gal(a1-3)[Gal(a1-4)]Gal(b1-4)GlcNAc
# Summary of the method: as §1
# Gal(a1-4)Gal(b1-4)Glc = target: Gal(a1-4)Gal(b1-4)Glc
# Summary of the method: as §1
# Gal(a1-4)Gal(b1-4)GlcNAc = target: Gal(a1-4)Gal(b1-4)GlcNAc
# Summary of the method: as §1
# Gal(a1-4)GlcNAc = target: Gal(a1-4)GlcNAc
# Summary of the method: as §1
# Gal(a1-6)Glc = target: Gal(a1-6)Glc
# Summary of the method: as §1
# Gal(b1-2)Gal = target: Gal(b1-2)Gal
# Summary of the method: as §1
# Gal(b1-3)Gal = target: Gal(b1-3)Gal
# Summary of the method: as §1
# Gal(b1-3)GalNAc = target: Gal(b1-3)GalNAc
# Summary of the method: as §1
# [3] = target: Gal(b1-3)GalNAc(b1-3)Gal(a1-4)Gal(b1-4)Glc
# Summary of the method: as §1
# [4] = target: Gal(b1-3)GalNAc(b1-4)Gal(b1-4)Glc
# Summary of the method: as §1
# [5] = target: Gal(b1-3)GalNAc(b1-4)[Neu5Ac(a2-3)]Gal(b1-4)Glc
# Summary of the method: as §1
# Gal(b1-3)GlcNAc = target: Gal(b1-3)GlcNAc
# Summary of the method: as §1
# [6] = target: Gal(b1-3)GlcNAc(b1-3)Gal(b1-4)Glc
# Summary of the method: as §1
# [7] = target: Gal(b1-3)GlcNAc(b1-3)Gal(b1-4)GlcNAc
# Summary of the method: as §1
# [8] = target: Gal(b1-3)[Fuc(a1-4)]GlcNAc
# Summary of the method: as §1
# [9] = target: Gal(b1-3)[Fuc(a1-4)]GlcNAc(b1-3)Gal(b1-4)GlcNAc
# Summary of the method: as §1
# [10] = target: Gal(b1-3)[Fuc(a1-4)]GlcNAc(b1-3)Gal(b1-4)[Fuc(a1-3)]GlcNAc
# Summary of the method: as §1
# [11] = target: Gal(b1-3)[GlcNAc(b1-6)]GalNAc
# Summary of the method: as §1
# [12] = target: Gal(b1-3)[Neu5Ac(a2-6)]GalNAc
# Summary of the method: as §1
# [13] = target: Gal(b1-3)[Neu5Ac(a2-6)]GlcNAc(b1-6)Gal(b1-4)Glc
# Summary of the method: as §1
# [14] = target: Gal(b1-3)[Neu5Ac(b2-6)]GalNAc
# Summary of the method: as §1
# [15] = target: Gal(b1-4)GalNAc(a1-3)[Fuc(a1-2)]Gal(b1-4)GlcNAc
# Summary of the method: as §1
# [16] = target: Gal(b1-4)GalNAc(b1-3)[Fuc(a1-2)]Gal(b1-4)GlcNAc
# Summary of the method: as §1
# Gal(b1-4)Glc = target: Gal(b1-4)Glc
# Summary of the method: as §1
# Gal(b1-4)Glc6S = target: Gal(b1-4)Glc6S
# Summary of the method: as §1
# Gal(b1-4)GlcNAc = target: Gal(b1-4)GlcNAc
# Summary of the method: as §1
# [17] = target: Gal(b1-4)GlcNAc(b1-2)Man(a1-3)[Gal(b1-4)GlcNAc(b1-2)Man(a1-6)]Man(b1-4)GlcNAc(b1-4)GlcNAc
# Summary of the method: as §1
# [18] = target: Gal(b1-4)GlcNAc(b1-3)Gal(b1-4)Glc
# Summary of the method: as §1
# [19] = target: Gal(b1-4)GlcNAc(b1-3)Gal(b1-4)GlcNAc
# Summary of the method: as §1
# [20] = target: Gal(b1-4)GlcNAc(b1-3)Gal(b1-4)GlcNAc(b1-3)Gal(b1-4)GlcNAc
# Summary of the method: as §1
# [21] = target: Gal(b1-4)GlcNAc(b1-3)Gal(b1-4)[Fuc(a1-3)]GlcNAc(b1-3)Gal(b1-4)[Fuc(a1-3)]GlcNAc
# Summary of the method: as §1
binder,measurement,setting,value
B1,glycan array binding signal (z-score),Gal(a1-2)Gal,-0.349
same,glycan array binding signal (z-score),Gal(a1-3)Gal,0.555
same,glycan array binding signal (z-score),Gal(a1-3)Gal(b1-3)GlcNAc,0.678
same,glycan array binding signal (z-score),Gal(a1-3)Gal(b1-4)Glc,1.03
same,glycan array binding signal (z-score),Gal(a1-3)Gal(b1-4)GlcNAc,1.68
same,glycan array binding signal (z-score),[1],2.4
same,glycan array binding signal (z-score),Gal(a1-3)GalNAc,2.94
same,glycan array binding signal (z-score),[2],5.83
same,glycan array binding signal (z-score),Gal(a1-4)Gal(b1-4)Glc,-0.362
same,glycan array binding signal (z-score),Gal(a1-4)Gal(b1-4)GlcNAc,-0.337
same,glycan array binding signal (z-score),Gal(a1-4)GlcNAc,-0.012
same,glycan array binding signal (z-score),Gal(a1-6)Glc,-0.368
same,glycan array binding signal (z-score),Gal(b1-2)Gal,-0.356
same,glycan array binding signal (z-score),Gal(b1-3)Gal,0.092
same,glycan array binding signal (z-score),Gal(b1-3)GalNAc,0.264
same,glycan array binding signal (z-score),[3],0.117
same,glycan array binding signal (z-score),[4],-0.359
same,glycan array binding signal (z-score),[5],-0.344
same,glycan array binding signal (z-score),Gal(b1-3)GlcNAc,-0.274
same,glycan array binding signal (z-score),[6],-0.299
same,glycan array binding signal (z-score),[7],-0.3
same,glycan array binding signal (z-score),[8],-0.365
same,glycan array binding signal (z-score),[9],-0.168
same,glycan array binding signal (z-score),[10],-0.366
same,glycan array binding signal (z-score),[11],-0.144
same,glycan array binding signal (z-score),[12],0.068
same,glycan array binding signal (z-score),[13],-0.362
same,glycan array binding signal (z-score),[14],0.952
same,glycan array binding signal (z-score),[15],-0.369
same,glycan array binding signal (z-score),[16],-0.328
same,glycan array binding signal (z-score),Gal(b1-4)Glc,0.698
same,glycan array binding signal (z-score),Gal(b1-4)Glc6S,0.604
same,glycan array binding signal (z-score),Gal(b1-4)GlcNAc,0.686
same,glycan array binding signal (z-score),[17],1.49
same,glycan array binding signal (z-score),[18],0.298
same,glycan array binding signal (z-score),[19],0.363
same,glycan array binding signal (z-score),[20],-0.23
same,glycan array binding signal (z-score),[21],-0.068

# Source: the supplement of paper PMC8728848
